# Where “and” joins values, the source holds several entries; their conditions need not be identical. Identical values can stand only once. Screen size: about 410,000 compounds; about 5,000 (1.2%) were called active. This list was built around the results that the source calls inconclusive (neither active nor inactive); the mix of calls is not that of the screen. The call rests on the fitted dose curve; in most records, active means well fitted inhibition curve with a large enough effect; inconclusive means small, poorly fitted or top-dose-only effect; inactive means no such curve, though single readings can be large or run the other way. Where the call is inconclusive, the potency comes from a doubtful curve fit.
# Test: qHTS for Inhibitors of TGF-b; further: nearly all actives have a fitted effect of over 65% in size
# Conditions: HepG2 CAGA-GFP TGF-b/SMAD3 reporter, GFP fluorescence, 18 h, TGF-beta stimulated, 500 pg/mL final; series mostly up to 46.1 µM
# In short: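 HEPG2 CAGA-GFP cells (1000/well, DMEM with 1% FBS) were pre-incubated 2 h at 37 degrees C, given compound by pin tool, then stimulated with TGF-beta at 500 pg/mL final for 18 h before per-cell GFP fluorescence imaging.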
# Potency means the concentration at half of the fitted maximal effect; tags describe the fitted curve by direction and shape.
row,Compound,Potency
1,CC(C)(C)n1nc(Cc2cccc3ccccc23)c2c(N)ncnc21,active: 14.1 µM
2,CCCNC(=O)c1c(N)n(-c2cccc(OC)c2)c2nc3ccccc3nc12,"inconclusive: 6.31 µM [inhibitor, partial curve]"
3,CCOC(=O)c1c(C)[nH]c(C(=O)CN2C(=O)NC3(CCCC3)C2=O)c1C,inactive
4,COc1cccc(Nc2nnc(Cc3cccnc3)c3ccccc23)c1,inactive
5,COc1cccc(-c2cc(C(F)(F)F)c(C#N)c(=O)[nH]2)c1,"inconclusive: 15.8 µM [inhibitor, single point]"
6,CCCn1c(O)c(/C=C2\C=NN=C2c2ccccc2)sc1=S,inactive
7,O=S(=O)(c1ccccc1)N(c1ccccc1)S(=O)(=O)c1ccccc1,inactive
8,COc1cccc(OC)c1C(=O)Nc1nc2ccc([N+](=O)[O-])cc2s1,"inconclusive: 6.31 µM [inhibitor, single point]"
9,O=[N+]([O-])c1ccccc1N/N=C\c1ccccc1F,"inconclusive: 0.282 µM [inhibitor, partial curve, poor fit]"
10,CCCOc1ccccc1C1CC(=O)Nc2cc3c(cc21)OCCO3 (stereo not drawn),"inconclusive: 3.98 µM [inhibitor, full curve, poor fit]"
11,Cc1ccccc1C(=O)NNC(=S)NC(=O)c1ccc(Cl)cc1Cl,"inconclusive: 35.5 µM [inhibitor, single point]"
12,COc1ccc(CNC(=O)Cc2coc3ccc(C(C)C)cc23)cc1,"inconclusive: 35.5 µM [inhibitor, partial curve, poor fit]"
13,CC(=O)c1ccc(S(=O)(=O)NCCC(=O)OCC(=O)N(Cc2ccccc2)C(C)(C)C)cc1,"inconclusive: 20 µM [inhibitor, single point]"
14,COC(=O)Nc1sc2c(c1C(N)=O)CCC(C)C2 (stereo not drawn),inactive
15,O=C(CN1C(=O)COc2ccc(S(=O)(=O)N3CCCCC3)cc21)NCc1ccccc1Cl,"inconclusive: 35.5 µM [inhibitor, single point]"
16,CCC(=O)Nc1cccc(-n2nnnc2SCC(=O)c2ccc(C)c(C)c2)c1,"inconclusive: 14.1 µM [inhibitor, partial curve, poor fit]"
17,O=C(Nn1c(C2CCC2)nc2ccccc2c1=O)C1CCC1,inactive
18,Cc1cc(Nc2cc(Cl)ccc2C)n2nc(Cc3ccccc3)nc2n1,inactive
19,CC(C)c1ccc(NC(=O)CN2C(=O)c3cccc4cccc2c34)cc1,"inconclusive: 0.316 µM [inhibitor, full curve, poor fit]"
20,Cc1ccc(-c2cc(C(=O)N3CCCC(C(F)(F)F)C3)c3ccccc3n2)o1 (stereo not drawn),inactive
21,O=S(=O)(c1ccc(Cl)c(Cl)c1)c1snnc1-c1ccccc1,"inconclusive: 35.5 µM [inhibitor, single point]"
22,CSc1ccc(CN(C)Cc2cc(=O)oc3c(C)c(C)ccc23)cc1,"inconclusive: 11.2 µM [inhibitor, single point]"

row,Compound,Potency
1,CC(C)COc1ccc(S(=O)(=O)NNC(=O)c2cc3ccccc3o2)cc1,"inconclusive: 35.5 µM [inhibitor, single point]"
2,CCc1ccc(S(=O)(=O)c2cn(C)c3cc(OC)c(OC)cc3c2=O)cc1,inactive
3,Cc1ccc(C(=O)Nc2ccc3c(c2)OCO3)cc1S(=O)(=O)N1CCCCC1,"inconclusive: 10 µM [inhibitor, partial curve]"
4,COc1ccc(C)cc1NC(=O)CN1C(=O)COc2ccc(S(=O)(=O)N3CCCCCC3)cc21,"inconclusive: 15.8 µM [inhibitor, single point]"
5,O=C(CCn1cnc(-c2ccccc2)c1-c1ccccc1)N/N=C/c1ccccc1O,"inconclusive: 35.5 µM [inhibitor, single point]"
6,CCOC(=O)C1=CCN(S(=O)(=O)c2cccc(Cl)c2)C1c1ccccc1 (stereo not drawn),"inconclusive: 10 µM [inhibitor, partial curve, poor fit]"
7,CCOc1ccc(/C=N/n2cc(-c3ccccc3)[nH]c2=S)cc1,"inconclusive: 0.398 µM [inhibitor, full curve]"
8,Oc1ccccc1Oc1c(F)c(F)nc(N2CCCC2)c1F,"inconclusive: 17.8 µM [inhibitor, single point]"
9,CCCCNC(=S)NNC(=O)c1cc(C2CC2)nc2ccccc12,"inconclusive: 2.82 µM [inhibitor, full curve, poor fit]"
10,COc1ccc(OC)c(-c2csc(NC(=O)Cc3ccccc3F)n2)c1,"inconclusive: 31.6 µM [inhibitor, single point]"
11,CCN(CC)c1ccc(C(=O)N2CCC(c3ccncc3)CC2)cc1,"inconclusive: 35.5 µM [inhibitor, single point]"
12,C/C(=N\N1CCN(Cc2ccc(Cl)cc2)CC1)c1ccc(F)cc1,"inconclusive: 35.5 µM [inhibitor, single point]"
13,CCOc1cccc(C2c3[nH]c4ccccc4c3CCN2C(=O)CCc2ccccc2)c1 (stereo not drawn),"inconclusive: 7.08 µM [inhibitor, partial curve]"
14,COC(=O)c1scc(C)c1NC(=O)c1ccccc1F,inactive
15,Cc1ccc(Cc2c(-c3cccc(Cl)c3)nc3ccc(Cl)cn23)cc1,"inconclusive: 35.5 µM [inhibitor, single point]"
16,C=C[C@@H]1c2ccccc2N(S(=O)(=O)c2ccc(C)cc2)[C@H](c2ccccc2)C1(C#N)C#N,"inconclusive: 12.6 µM [inhibitor, partial curve, poor fit] and inconclusive: 35.5 µM [inhibitor, partial curve, poor fit]"
17,O=C(NCCc1ccc(F)cc1)C(=O)NCC(c1ccc2c(c1)OCO2)N1CCOCC1 (stereo not drawn),inactive
18,CCn1nnnc1NCc1cccc(Cl)c1,"inconclusive: 5.62 µM [inhibitor, single point]"
19,CCN(C(=O)CO/N=C/c1ccc(OC)cc1OC)c1c(N)n(Cc2ccccc2)c(=O)[nH]c1=O,inactive
20,Cc1ccc(C(C)C)c(OCC(=O)Nc2nc3c(s2)CCCC3)c1,"inconclusive: 1.26 µM [inhibitor, partial curve]"
21,CCc1nc(Nc2cccc(O)c2)c2oc3ccccc3c2n1,"inconclusive: 35.5 µM [inhibitor, single point]"

# — PubChem BioAssay AID588855 (National Center for Advancing Translational Sciences (NCATS), 2011)
